Reference: PubChem BioAssay AID1347120 (National Center for Advancing Translational Sciences (NCATS), 2019)
In all, about 390,000 compounds went through this assay and about 930 (0.24%) were called active. The shares of active, inactive and inconclusive entries below differ from those in the screen. The call rests on the fitted dose curve; in most records, active means well fitted activation curve with a large enough effect; inconclusive means small, poorly fitted or top-dose-only effect; inactive means no such curve, though single readings can be large or run the other way. Where the call is inconclusive, the potency comes from a doubtful curve fit.

assay: qHTS for Suppressors of FUS Proteinopathy: Primary screen using FUS-linked yeast assay; further: nearly all actives have a fitted effect of over 55% in size;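 on growth rescue (activation): plate controls were DMSO vehicle for no effect and reference control for full effect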; conditions: S. cerevisiae FUS-expressing, OD600, 24 h; Potency: growth rescue; growth rescue (activation): at 76.6 µM (top of the series)
Procedure, shortened: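 Restored growth of FUS-toxic S. cerevisiae, read as 600 nm absorbance after 24 h at 30C in galactose medium (starting OD 0.005). Controls CP55940 and DMSO.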
Potency means the concentration at half of the fitted maximal effect; tags describe the fitted curve by direction and shape.

| Structure (SMILES) | Potency | growth rescue (activation) |
| --- | --- | --- |
| O=c1[nH]c2ccccc2n1CCCOc1ccccc1 | inconclusive: 39.8 µM [activator, single point] |  |
| O=C(c1cccc(C(=O)N2CCN(c3ccc(F)cc3)CC2)c1)N1CCN(c2ccc(F)cc2)CC1 | inconclusive: 28.2 µM [activator, partial curve, poor fit] |  |
| CCc1ccc(NC(=O)CSC2=Nc3ccccc3C3=NC(CC(=O)NCc4ccc5c(c4)OCO5)C(=O)N23)cc1 (stereo not drawn) | inconclusive: 35.5 µM [activator, single point] |  |
| Brc1ccc2[nH]c3c(N4CCc5ccccc5C4)ncnc3c2c1 |  | inactive: 13.6% |
| COc1ccc(N2C(=O)CSC23C(=O)N2CCCc4cccc3c42)cc1 (stereo not drawn) |  | inactive: 13.1% |
| COc1cc(OC)cc(-c2sc3ccc(OC)cc3c2C#CCO)c1 | inconclusive: 50.1 µM [activator, single point] |  |
| CC1(C(=O)Nc2ccc3c(c2)OCCO3)CCN1C(=O)Cc1ccc(-c2ccccc2)cc1 (stereo not drawn) | inconclusive: 31.6 µM [activator, single point] |  |
| CCOc1ccc2nc(NC(=O)c3cccc(N4C(=O)CCC4=O)c3)sc2c1 |  | inactive: -35.6% |
| COc1cc(F)ccc1-c1cc(C(=O)Nc2ccc(C)c(NS(C)(=O)=O)c2)[nH]n1 | inconclusive: 20 µM [activator, partial curve] |  |
| C#CCNC(=O)C[C@H]1C[C@@]2(C(=O)OC)C(=C[C@H](COCc3ccccc3)O[C@@H]2C)N(Cc2ccccc2)C1=O |  | inactive: 22.4% |
| CC(C)(C)OC(=O)N1CCC(c2c(C(=O)Nc3ccc4c(c3)OCO4)cnn2-c2ccc(F)cc2F)CC1 | inconclusive: 25.1 µM [activator, partial curve, poor fit] |  |
| CCn1cc(S(=O)(=O)c2cccc(C)c2)c(=O)c2cc(F)c(N3CCCCC3C)cc21 (stereo not drawn) |  | inactive: 0.245% |
| O=C(NCc1ccccc1C(F)(F)F)C12CN(Cc3ccccc3)CC1C(c1ccc([N+](=O)[O-])cc1)=NO2 (stereo not drawn) | inconclusive: 28.2 µM [activator, single point] |  |
| Cc1ccc(Cn2c(SCc3ccc(C(=O)NCCc4ccccc4)cc3)nc3ccncc32)cc1 | inconclusive: 25.1 µM [activator, single point] |  |
| COc1cccc(CN(Cc2ccco2)C(c2ccc(F)cc2)c2nnnn2C(C)(C)C)c1 (stereo not drawn) | inconclusive: 14.1 µM [activator, partial curve, poor fit] |  |
| Cc1cccc(C)c1NC(=O)C(NC=O)c1ccccc1 (stereo not drawn) | inconclusive: 2.51 µM [activator, partial curve, poor fit] |  |
| CN(C)c1cccc(-c2cnc(N3CCC(C(N)=O)CC3)nc2)c1 | inconclusive: 15.8 µM [activator, single point] |  |
| CC[C@H](C)C(C(=O)N1CCN(C(=O)OC(C)(C)C)CC1)n1cc(C(Cc2ccc(O)cc2)NC(=O)OC(C)(C)C)nn1 (stereo partly drawn) | inconclusive: 14.1 µM [activator, partial curve, poor fit] |  |
| CCOC(=O)c1[nH]c2ccc(OC)cc2c1NC(=O)/C=C/c1ccc2c(c1)OCO2 | inconclusive: 22.4 µM [activator, partial curve] |  |
| C=CC[C@@H](CC(=O)N(CCO)Cc1ccccc1)C(=O)NC[C@@H](OC(=O)[C@@H](CC=C)CC(=O)OC(C)(C)C)c1ccccc1 | inconclusive: 31.6 µM [activator, single point] |  |

| Structure (SMILES) | Potency | growth rescue (activation) |
| --- | --- | --- |
| Cc1ccc(C)n1-c1ccc(NC(=O)c2ccccc2)cc1 | inconclusive: 50.1 µM [activator, single point] |  |
| Cc1ccc(S(=O)(=O)N2C[C@@H]3[C@H]4CC[C@H](C4)[C@@H]3[C@@H](C)[C@H]2c2ccn(Cc3ccccc3)c2)cc1 | inconclusive: 50.1 µM [activator, single point] |  |
| Cc1c2cnn(CC(=O)N3CCN(c4ccc(F)cc4)CC3)c(=O)c2c(C)n1Cc1ccccc1F |  | inactive: 15.3% |
| Cc1ccc(-c2nn(-c3cc(Cl)ccc3[N+](=O)[O-])c(=O)c3ccccc23)cc1C |  | inconclusive: 74.8% [activator] |
| Cc1sc2ncnc(N3CCC(C(=O)Nc4cc(C(F)(F)F)ccc4OCC(F)(F)F)CC3)c2c1C | inconclusive: 28.2 µM [activator, single point] |  |
| CCc1ccc([C@H]2[C@@H]3C(=O)C[C@@H]4C(=O)N(C)C(=O)[C@@H]4[C@@H]3CN2S(=O)(=O)c2ccc(C)cc2)cc1 | inconclusive: 20 µM [activator, partial curve] |  |
| COc1ccc(OCC(=O)Nc2ccc(N3CCOCC3)cc2)cc1 | inconclusive: 31.6 µM [activator, single point] |  |
| COc1cccc(N2CCN(Cc3cc(=O)oc4cc(C)ccc34)CC2)c1 |  | inactive: 6.8% |
| Cc1ccc(Nc2nc(CSc3nnnn3-c3ccccc3)cc(=O)[nH]2)cc1 | inconclusive: 44.7 µM [activator, single point] |  |
| N#Cc1cccc(NC(=O)CCNS(=O)(=O)c2ccc3c(c2)CCN3C(=O)C2CC2)c1 |  | inactive: -5.12% |
| O=C(OC12CCCN(C1)/C(=C/c1cccc(Cl)c1)C2)C1CCCCC1 (stereo not drawn) |  | inactive: 1.83% |
| Cc1ccc(N2C(=O)c3ccc(N)cc3C2=O)cc1 |  | inactive: 0.241% |
| O=C(NCc1ccccc1)C(c1ccc(-c2ccccc2)cc1)n1c(=O)c(-c2ccco2)nc2ccccc21 (stereo not drawn) | inconclusive: 31.6 µM [activator, partial curve, poor fit] |  |
| CC(C)c1ccc(N(CC(=O)NCCSC(C)(C)C)S(C)(=O)=O)cc1 |  | inconclusive: 77.8% [activator] |
| Cc1nn(-c2ccccc2)nc1CNS(C)(=O)=O | inconclusive: 11.2 µM [activator, single point] |  |
| CCOC(=O)C1CCCN(C(=O)c2ccc(NC(=O)c3nsc4ccccc34)cc2)C1 (stereo not drawn) | inconclusive: 31.6 µM [activator, single point] |  |
| Cc1ccc2c(CC(=O)N(Cc3cccc(Cl)c3)C3CCS(=O)(=O)C3)coc2c1 (stereo not drawn) | inconclusive: 44.7 µM [activator, single point] |  |
| Cc1ccc(C(=O)CC2(O)C(=O)N(Cc3ccccc3)c3ccccc32)c(C)c1 (stereo not drawn) | inconclusive: 35.5 µM [activator, single point] |  |
| CCCSc1nnc2n(-c3cccc(C)c3)c(=O)c3c4c(sc3n12)CCCC4 |  | inactive: 2.49% |
| O=c1[nH]c(/C=C/c2cccc3ccccc23)nc2ccccc12 |  | inactive: 18.6% |

| Structure (SMILES) | Potency | growth rescue (activation) |
| --- | --- | --- |
| CCCCCCCCN1C(=O)[C@@H](CC(=O)NCC23CC4CC(CC(C4)C2)C3)C[C@@]2(C(=O)OC)C1=C[C@H](C(C)C)O[C@@H]2C1CC1 | inconclusive: 2.82 µM [activator, full curve, poor fit] |  |
| Cn1c(Oc2ccccc2)nc2c1c(=O)n(Cc1ccc(Cl)cc1Cl)c(=O)n2C |  | inactive: 12.2% |
| CC[C@]12c3[nH]c4cc(-c5ccco5)ccc4c3CCN1C(=O)[C@@H](CC(=O)NCc1cccc(C(F)(F)F)c1)C[C@@H]2C(=O)N1CCN(C(=O)C2CC2)CC1 | inconclusive: 31.6 µM [activator, single point] |  |
| CCc1ccc(NC(=O)c2ccc(F)c(S(=O)(=O)NCCc3ccc(OC)c(OC)c3)c2)cc1 | inconclusive: 39.8 µM [activator, single point] |  |
| COc1cccc(Nc2sc(C(=O)c3ccc(Cl)cc3)c(N)c2C(=O)NCCc2ccc(OC)c(OC)c2)c1 | inconclusive: 22.4 µM [activator, single point] |  |
| Oc1ccc(N=Nc2ccc3c(c2)OCCO3)c2ncccc12 |  | inactive: -16.8% |
| COc1ccc(-c2[nH]c(-c3ccc4c(c3)OCO4)nc2-c2ccccc2)cc1 | inconclusive: 39.8 µM [activator, single point] |  |
| CCOC(=O)Cc1ccc(Nc2nc3cc(-c4ccccc4C)sc3c(=O)n2C)cc1 | inconclusive: 31.6 µM [activator, partial curve, poor fit] |  |
| COC(=O)c1ccc(C)c(NC(=O)CSc2sc3c(O)cc(=O)[nH]c3c2C#N)c1 | inconclusive: 25.1 µM [activator, partial curve] |  |
| CC(=O)Nc1ccc(C(=O)N2CCCCC2c2cc(C(=O)Nc3cccc4c3CCCC4)no2)cc1 (stereo not drawn) | inconclusive: 31.6 µM [activator, single point] |  |
| C=CCC[C@@H](Cc1ccc(F)cc1)C(=O)OC[C@H](Cc1c[nH]c2ccccc12)NC(=O)[C@H](CC=C)CC(=O)N(CCO)Cc1ccccc1 | inconclusive: 7.94 µM [activator, full curve, poor fit] |  |
| C[C@@H](c1ccccc1)N1C[C@H](COCc2ccccc2)Oc2cc(N3CCC[C@@H]3CO)ccc2S1(=O)=O | inconclusive: 35.5 µM [activator, single point] |  |
| CCCCCCCCN1C(=O)[C@H](CC(=O)NCc2ccc(OC)c(OC)c2)C[C@@]2(C(=O)OCC)CCC=C12 | inconclusive: 31.6 µM [activator, partial curve] |  |
| COc1ccc(Br)c(C(=O)OCC(=O)NC2CCCCCC2)c1 |  | inactive: 40.4% |
| COc1cc(F)ccc1-c1csc(C(O)c2ccccc2)n1 (stereo not drawn) | inconclusive: 50.1 µM [activator, single point] |  |
| Cc1ccc(S(=O)(=O)N(Cc2ccccc2)c2ccccc2C(=O)Nc2ccccc2C(=O)NCc2ccco2)cc1 | inconclusive: 35.5 µM [activator, partial curve, poor fit] |  |
| O=C(Nc1ccccc1C(F)(F)F)OCCCN1CCC2(CCC(c3ccccc3)CC2)C1=O (stereo not drawn) | inconclusive: 8.91 µM [activator, partial curve] |  |
| O=C(CN1CCN(c2cccc(Cl)c2)CC1)NC1CCCc2ccccc21 (stereo not drawn) | inconclusive: 8.91 µM [activator, partial curve] |  |
